Screen size: about 220,000 compounds; about 16,000 (7.3%) were called active. Inconclusive means that the source gave no clear call. Such entries were picked first, then a sample of the others. Calls come from the whole dose curve; as a rule, active = well fitted inhibition curve with a large enough effect (not every such curve was filed as active); inconclusive = small, poorly fitted or top-dose-only effect, or another doubt; inactive = no such curve, though single readings can be large or run the other way. No potency is given beside an inconclusive call; the fits are too rough.
Each compound was assayed against Aldehyde dehydrogenase 1A1 (Homo sapiens) (UniProt P00352) (assay: qHTS Assay for Inhibitors of Aldehyde Dehydrogenase 1 (ALDH1A1)). Details: Purified ALDH1A1, NADH fluorescence, propionaldehyde substrate; series mostly up to 75.3 µM.
UniProt P00352, sequence (P00352 whole entry, looked up): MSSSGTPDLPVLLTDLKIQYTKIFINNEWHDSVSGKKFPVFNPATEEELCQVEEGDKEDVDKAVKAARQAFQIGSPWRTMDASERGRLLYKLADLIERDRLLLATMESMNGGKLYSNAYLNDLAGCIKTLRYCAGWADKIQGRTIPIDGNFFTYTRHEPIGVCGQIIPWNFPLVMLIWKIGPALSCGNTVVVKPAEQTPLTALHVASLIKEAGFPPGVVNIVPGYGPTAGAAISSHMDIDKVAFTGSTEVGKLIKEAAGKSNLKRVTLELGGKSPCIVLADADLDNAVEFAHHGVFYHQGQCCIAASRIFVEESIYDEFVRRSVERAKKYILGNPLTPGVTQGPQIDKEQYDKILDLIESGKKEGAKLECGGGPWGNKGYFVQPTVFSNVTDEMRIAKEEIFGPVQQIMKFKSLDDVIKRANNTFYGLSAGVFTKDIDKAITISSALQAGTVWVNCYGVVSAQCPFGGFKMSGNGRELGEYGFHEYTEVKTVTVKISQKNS
Potency is the fitted concentration of half-maximal effect; tags give direction and shape of the fitted curve.
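Throughout, for activity, negative = inhibition: plate controls were no enzyme wells and a reference inhibitor.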

**Q.** How did the Potency turn out when O=C(CN(C(=O)c1ccc(Cl)cc1)N1C(=O)C2C3C=CC(C3)C2C1=O)c1cccs1 (stereo not given) was run?
**A.** inconclusive [inhibitor, single point]

**Q.** Which Potency does the source give for CCC(=O)Nc1nc(-c2cc([N+](=O)[O-])cs2)cs1 here?
**A.** inconclusive [inhibitor, single point]

**Q.** How did the Potency turn out when COc1cc2cc(CN(CCN3CCCC3)C(=O)Nc3ccccc3Cl)c(=O)[nH]c2cc1OC was run?
**A.** inconclusive [inhibitor, single point]

**Q.** For CSc1nnc(-c2cc[n+](C)cc2)n1CCO, which Potency is on record?
**A.** inactive

**Q.** For Cc1occc1-c1nnc(SCC(=O)NCCc2ccccc2)n1Cc1ccccc1, which Potency is on record?
**A.** inconclusive [inhibitor, single point]

**Q.** With Cc1ccc(C(=O)N/C(=C\c2cccs2)c2nc3ccccc3[nH]2)cc1 as the compound, how does the Potency read?
**A.** inconclusive [inhibitor, single point]

**Q.** With Nc1nc(SCC(=O)NC2CCCCC2)[nH]c(=O)c1-c1ccccc1 as the compound, how does the Potency read?
**A.** inconclusive [inhibitor, single point]

**Q.** Which Potency does the source give for CCOC(=O)N/N=C(\C)c1cccs1 here?
**A.** inactive

**Q.** Which Potency does the source give for CC(C)Cc1ccc(/C(=N/O)C(=O)O)s1 here?
**A.** inconclusive [inhibitor, single point]

**Q.** How did the Potency turn out when COc1ccc(S(=O)(=O)NCCSCc2cccc(C)c2)cc1Br was run?
**A.** inconclusive [inhibitor, single point]

**Q.** How did the Potency turn out when O=c1c(-c2cccs2)nc2cncnc2n1Cc1ccccc1 was run?
**A.** inconclusive [inhibitor, partial curve]

**Q.** Which Potency does the source give for COc1ccc(-c2nc3c(c(=O)[nH]c(=O)n3Cc3ccccc3)n2C)cc1 here?
**A.** inconclusive [inhibitor, single point]

**Q.** CC(C)(C)n1nnnc1C(c1ccncc1)N1CCN(C2CCCCC2)CC1 (stereo not given) was tested. Which Potency did it give?
**A.** inactive

**Q.** For Cc1cc(C)c2[nH]c(=O)c(C(c3nnnn3CC3CCCO3)N3CCC(C)CC3)cc2c1 (stereo not given), which Potency is on record?
**A.** inconclusive [inhibitor, partial curve]

**Q.** Which Potency does the source give for COc1ccc(OC)c(CNCCNC(=O)c2ccco2)c1 here?
**A.** inconclusive [inhibitor, partial curve]

**Q.** For CC(C)C[C@H](NC(=O)Nc1ccccc1F)C(=O)O, which Potency is on record?
**A.** inactive

**Q.** For CN(Cc1cnn(C)c1)C(=O)c1sc2cccc(Cl)c2c1Cl, which Potency is on record?
**A.** inconclusive [inhibitor, partial curve]

**Q.** With Cc1cc(-c2cccc([N+](=O)[O-])c2)nc2ccccc12 as the compound, how does the Potency read?
**A.** inconclusive [inhibitor, single point]

**Q.** Which Potency does the source give for O=C(c1ccc(Cl)c([N+](=O)[O-])c1)N(Cc1cccc(Cl)c1)C1CCS(=O)(=O)C1 (stereo not given) here?
**A.** inconclusive [inhibitor, single point]

**Q.** With COc1ccc(C(CCN)Cc2ccccc2)cc1 (stereo not given) as the compound, how does the Potency read?
**A.** inconclusive [inhibitor, single point]

**Q.** Which Potency does the source give for CCC(C)[C@H](NC(=O)NCc1cccc(OC)c1)C(=O)OC (stereo not given in full) here?
**A.** inconclusive [inhibitor, single point]

**Q.** For CC(=O)c1ccc(S(=O)(=O)N2CCN(c3ccccc3F)CC2)cc1, which Potency is on record?
**A.** inconclusive [inhibitor, single point]

**Q.** With O=C1CN=C(Nc2ccccc2)N1Cc1cccs1 as the compound, how does the Potency read?
**A.** inactive

**Q.** How did the Potency turn out when COc1ccccc1Nc1ncnc2nc[nH]c12 was run?
**A.** inactive

**Q.** Cc1oc2c(CN3CCOCC3)c(O)ccc2c(=O)c1-c1ccccc1 was tested. Which Potency did it give?
**A.** inconclusive [inhibitor, partial curve]

**Q.** For OCCOCCNc1ncnc2sc(-c3ccccc3)cc12, which Potency is on record?
**A.** inconclusive [inhibitor, partial curve]

**Q.** With CC(C)CC(=O)NC(=S)N1CCN(c2ccc([N+](=O)[O-])cc2Cl)CC1 as the compound, how does the Potency read?
**A.** inconclusive [inhibitor, single point]

**Q.** Which Potency does the source give for Cc1ccc(S(=O)(=O)N(CC(=O)NC2CCCC2)c2cccc(C)c2)cc1 here?
**A.** inconclusive [inhibitor, single point]

**Q.** CCCCC(=O)Oc1ccccc1C(=O)O was tested. Which Potency did it give?
**A.** inactive

**Q.** How did the Potency turn out when O=[N+]([O-])c1cccc(CSc2nnc(Cc3ccccc3)n2-c2ccc(F)cc2)c1 was run?
**A.** inactive

**Q.** Which Potency does the source give for COc1ccc(N2C(=O)C3C4C=CC(c5ccccc5)(C3C2=O)C2C(=O)N(c3ccc(OC)cc3)C(=O)C42)cc1 (stereo not given) here?
**A.** inconclusive [inhibitor, single point]

**Q.** With CCOC(=O)C(O)(CC(=O)c1ccc(OC)cc1)C(F)(F)F (stereo not given) as the compound, how does the Potency read?
**A.** inconclusive [inhibitor, single point]

**Q.** With CN(CC(=O)Nc1nc2ccc(F)cc2s1)S(=O)(=O)c1ccc(Cl)cc1 as the compound, how does the Potency read?
**A.** inconclusive [inhibitor, single point]

**Q.** NC(N)=NC[C@H](N)C(=O)O was tested. Which activity, negative = inhibition did it give?
**A.** inactive: 2.91% [at 13.5 µM]

**Q.** Which Potency does the source give for Cc1[nH][nH]c(=O)c1N=Nc1ccccc1C#N here?
**A.** inactive

**Q.** Cc1c(O)ccc(C(=O)CN2CCN(Cc3ccc4c(c3)OCO4)CC2)c1O was tested. Which Potency did it give?
**A.** inconclusive [inhibitor, partial curve]

**Q.** Which Potency does the source give for N#C/C(=C\N1CCN(Cc2ccc3c(c2)OCO3)CC1)c1nc2ccccc2s1 here?
**A.** inconclusive [inhibitor, single point]

**Q.** With O=C(O)c1cccc(NC(=S)NC(=O)C(c2ccccc2)c2ccccc2)c1 as the compound, how does the Potency read?
**A.** inconclusive [inhibitor, partial curve]

**Q.** Which Potency does the source give for CCOC(=O)c1oc2ccccc2c1NC(=O)Cc1cccs1 here?
**A.** inconclusive [inhibitor, single point]

**Q.** How did the Potency turn out when O=[N+]([O-])c1cc2c(cc1/C=N/NS(=O)(=O)c1ccc(Br)cc1)OCO2 was run?
**A.** active: 3.16 µM

**Q.** For O=S(=O)(Nc1ccc2oc(-c3ccccc3)nc2c1)c1ccccc1, which Potency is on record?
**A.** inconclusive [inhibitor, single point]

**Q.** Which Potency does the source give for CCOc1ccccc1-n1c(=O)c2ccccc2c2ccccc2c1=O here?
**A.** inactive

**Q.** O=C(CCN1C(=O)c2cccc3cccc(c23)C1=O)N1CCOCC1 was tested. Which Potency did it give?
**A.** inconclusive [inhibitor, single point]

**Q.** CCOc1ccc(Oc2ccc(Cl)cc2NC(=O)CCNC(C)=O)cc1 was tested. Which Potency did it give?
**A.** inconclusive [inhibitor, single point]

**Q.** COc1ccc(C2CC(=O)c3sc(NC(C)=O)nc3C2)cc1 (stereo not given) was tested. Which Potency did it give?
**A.** inactive

Source: PubChem BioAssay AID1030 (National Center for Advancing Translational Sciences (NCATS), 2008)
